# Experimental data as given in the supplement of paper PMC8728848.
# Some of the results follow.
# Legend:
# Experiment in all cases: glycan array binding signal (z-score within array); higher = stronger binding
# Conditions in all cases: glycan notation: IUPAC condensed, linker removed
# Gal(b1-4)Glc6S = target: Gal(b1-4)Glc6S
# In short: (§1)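 The Consortium for Functional Glycomics database supplied 3228 glycan arrays, of which those lacking an available protein sequence were dropped. The binding signal, a within-array Z-score, was averaged across arrays of the same protein sequence and across linkers. Negative scores can be read as non-binding.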
# Gal(b1-4)GlcNAc = target: Gal(b1-4)GlcNAc
# In short: as §1
# [1] = target: Gal(b1-4)GlcNAc(b1-2)Man(a1-3)[Gal(b1-4)GlcNAc(b1-2)Man(a1-6)]Man(b1-4)GlcNAc(b1-4)GlcNAc
# In short: as §1
# [2] = target: Gal(b1-4)GlcNAc(b1-3)Gal(b1-4)Glc
# In short: as §1
# [3] = target: Gal(b1-4)GlcNAc(b1-3)Gal(b1-4)GlcNAc
# In short: as §1
# [4] = target: Gal(b1-4)GlcNAc(b1-3)Gal(b1-4)GlcNAc(b1-3)Gal(b1-4)GlcNAc
# In short: as §1
# [5] = target: Gal(b1-4)GlcNAc(b1-3)Gal(b1-4)[Fuc(a1-3)]GlcNAc(b1-3)Gal(b1-4)[Fuc(a1-3)]GlcNAc
# In short: as §1
# [6] = target: Gal(b1-4)GlcNAc(b1-3)GalNAc
# In short: as §1
# [7] = target: Gal(b1-4)GlcNAc(b1-3)[Gal(b1-4)GlcNAc(b1-6)]GalNAc
# In short: as §1
# [8] = target: Gal(b1-4)GlcNAc(b1-6)GalNAc
# In short: as §1
# [9] = target: Gal(b1-4)GlcNAc(b1-6)[Gal(b1-3)]GalNAc
# In short: as §1
# [10] = target: Gal(b1-4)GlcNAc(b1-6)[Gal(b1-3)]GlcNAc
# In short: as §1
# Gal3S(b1-3)GalNAc = target: Gal3S(b1-3)GalNAc
# In short: as §1
# Gal3S(b1-3)GlcNAc = target: Gal3S(b1-3)GlcNAc
# In short: as §1
# [11] = target: Gal3S(b1-3)[Fuc(a1-4)]GlcNAc
# In short: as §1
# Gal3S(b1-4)Glc = target: Gal3S(b1-4)Glc
# In short: as §1
# Gal3S(b1-4)Glc6S = target: Gal3S(b1-4)Glc6S
# In short: as §1
# Gal3S(b1-4)GlcNAc = target: Gal3S(b1-4)GlcNAc
# In short: as §1
# Gal3S(b1-4)GlcNAc6S = target: Gal3S(b1-4)GlcNAc6S
# In short: as §1
# Gal3S6S(b1-4)GlcNAc = target: Gal3S6S(b1-4)GlcNAc
# In short: as §1
# Gal3S6S(b1-4)GlcNAc6S = target: Gal3S6S(b1-4)GlcNAc6S
# In short: as §1
# Gal4S(b1-4)GlcNAc = target: Gal4S(b1-4)GlcNAc
# In short: as §1
# Gal4S6S(b1-4)GlcNAc = target: Gal4S6S(b1-4)GlcNAc
# In short: as §1
# Gal6S(b1-4)Glc = target: Gal6S(b1-4)Glc
# In short: as §1
# Gal6S(b1-4)Glc6S = target: Gal6S(b1-4)Glc6S
# In short: as §1
# Gal6S(b1-4)GlcNAc = target: Gal6S(b1-4)GlcNAc
# In short: as §1
# GalNAc(a1-3)Gal = target: GalNAc(a1-3)Gal
# In short: as §1
# GalNAc(a1-3)GalNAc = target: GalNAc(a1-3)GalNAc
# In short: as §1
# [12] = target: GalNAc(b1-3)Gal(a1-4)Gal(b1-4)GlcNAc
# In short: as §1
# GalNAc(b1-4)GlcNAc = target: GalNAc(b1-4)GlcNAc
# In short: as §1
# Glc(a1-4)Glc = target: Glc(a1-4)Glc
# In short: as §1
# Glc(a1-6)Glc(a1-6)Glc = target: Glc(a1-6)Glc(a1-6)Glc
# In short: as §1
# Glc(b1-4)Glc = target: Glc(b1-4)Glc
# In short: as §1
# Glc(b1-6)Glc = target: Glc(b1-6)Glc
# In short: as §1
# GlcA(b1-3)Gal = target: GlcA(b1-3)Gal
# In short: as §1
# GlcA(b1-6)Gal = target: GlcA(b1-6)Gal
# In short: as §1
# [13] = target: GlcNAc(a1-3)Gal(b1-4)GlcNAc
# In short: as §1
# [14] = target: GlcNAc(a1-6)Gal(b1-4)GlcNAc
# In short: as §1
binder,measurement,setting,value
Alpha-agglutinin (Saccharomyces cerevisiae) (protein) MFTFLKIILWLFSLALASAININDITFSNLEITPLTANKQPDQGWTATFDFSIADASSIREGDEFTLSMPHVYRIKLLNSSQTATISLADGTEAFKCYVSQQAAYLYENTTFTCTAQNDLSSYNTIDGSITFSLNFSDGGSSYEYELENAKFFKSGPMLVKLGNQMSDVVNFDPAAFTENVFHSGRSTGYGSFESYHLGMYCPNGYFLGGTEKIDYDSSNNNVDLDCSSVQVYSSNDFNDWWFPQSYNDTNADVTCFGSNLWITLDEKLYDGEMLWVNALQSLPANVNTIDHALEFQYTCLDTIANTTYATQFSTTREFIVYQGR,glycan array binding signal (z-score),Gal(b1-4)Glc6S,0.707
same,glycan array binding signal (z-score),Gal(b1-4)GlcNAc,-0.251
same,glycan array binding signal (z-score),[1],-0.203
same,glycan array binding signal (z-score),[2],3.24
same,glycan array binding signal (z-score),[3],-0.269
same,glycan array binding signal (z-score),[4],-0.257
same,glycan array binding signal (z-score),[5],-0.234
same,glycan array binding signal (z-score),[6],-0.22
same,glycan array binding signal (z-score),[7],-0.227
same,glycan array binding signal (z-score),[8],0.136
same,glycan array binding signal (z-score),[9],-0.271
same,glycan array binding signal (z-score),[10],-0.04
same,glycan array binding signal (z-score),Gal3S(b1-3)GalNAc,-0.123
same,glycan array binding signal (z-score),Gal3S(b1-3)GlcNAc,-0.148
same,glycan array binding signal (z-score),[11],-0.075
same,glycan array binding signal (z-score),Gal3S(b1-4)Glc,-0.233
same,glycan array binding signal (z-score),Gal3S(b1-4)Glc6S,0.133
same,glycan array binding signal (z-score),Gal3S(b1-4)GlcNAc,-0.188
same,glycan array binding signal (z-score),Gal3S(b1-4)GlcNAc6S,-0.09
same,glycan array binding signal (z-score),Gal3S6S(b1-4)GlcNAc,0.002
same,glycan array binding signal (z-score),Gal3S6S(b1-4)GlcNAc6S,0.253
same,glycan array binding signal (z-score),Gal4S(b1-4)GlcNAc,-0.149
same,glycan array binding signal (z-score),Gal4S6S(b1-4)GlcNAc,0.166
same,glycan array binding signal (z-score),Gal6S(b1-4)Glc,-0.097
same,glycan array binding signal (z-score),Gal6S(b1-4)Glc6S,0.122
same,glycan array binding signal (z-score),Gal6S(b1-4)GlcNAc,-0.19
same,glycan array binding signal (z-score),GalNAc(a1-3)Gal,-0.162
same,glycan array binding signal (z-score),GalNAc(a1-3)GalNAc,0.033
same,glycan array binding signal (z-score),[12],-0.237
same,glycan array binding signal (z-score),GalNAc(b1-4)GlcNAc,-0.18
same,glycan array binding signal (z-score),Glc(a1-4)Glc,-0.186
same,glycan array binding signal (z-score),Glc(a1-6)Glc(a1-6)Glc,-0.226
same,glycan array binding signal (z-score),Glc(b1-4)Glc,-0.248
same,glycan array binding signal (z-score),Glc(b1-6)Glc,-0.204
same,glycan array binding signal (z-score),GlcA(b1-3)Gal,-0.174
same,glycan array binding signal (z-score),GlcA(b1-6)Gal,-0.245
same,glycan array binding signal (z-score),[13],0.511
same,glycan array binding signal (z-score),[14],-0.27
